In the RNAGym collection of RNA variant scans (doi:10.7554/elife.90254):
Read counts are not given, so values of variants with three or more changes are uncertain.

B1: LINE1-mini (parent)
chain: GGCAGAGCUCAACACAGCGUGGCAAAGUGGCUGUGGCUAGACUGCC

Variants of: B1
Experiment: self-cleavage, relative activity (ratio to wild type); higher = more cleavage; in vitro, sequencing; the parent is a self-cleaving ribozyme

**Q.** With G5U G40A C45U as the variant, how does the self-cleavage read?
**A.** 0.02

**Q.** With G2U G29U C45G as the variant, how does the self-cleavage read?
**A.** 0.38

**Q.** With C8A U32G C46G as the variant, how does the self-cleavage read?
**A.** 0.24

**Q.** For G29U A41C C42A, which self-cleavage is on record?
**A.** 0.07

**Q.** Which self-cleavage does the source give for A11G G35U G36U C37U here?
**A.** 0.06

**Q.** With G1U A12U G21U G27A G33C C42U as the variant, how does the self-cleavage read?
**A.** 0.01

**Q.** With C3A A6U C8G G30A C42G as the variant, how does the self-cleavage read?
**A.** 0.16

**Q.** Which self-cleavage does the source give for A26G A39G A41G C42U here?
**A.** 0.05

**Q.** For G1U G7A A14C, which self-cleavage is on record?
**A.** 0.05

**Q.** Which self-cleavage does the source give for C3G C10G A14U C46U here?
**A.** 0.03

**Q.** With U9C C10U A39U as the variant, how does the self-cleavage read?
**A.** 0.04

**Q.** Which self-cleavage does the source give for C15A G29U G40A here?
**A.** 0.05

**Q.** Which self-cleavage does the source give for C3U G7A C8U A16G A25C G44A here?
**A.** 0.02

**Q.** For A6U U20A U28A A39G, which self-cleavage is on record?
**A.** 0.06

**Q.** Which self-cleavage does the source give for G2A G30A G35U here?
**A.** 0.13

**Q.** With G21A U28C C31G as the variant, how does the self-cleavage read?
**A.** 0.08

**Q.** With G7A A11C G36A C37A as the variant, how does the self-cleavage read?
**A.** 0.07

**Q.** Which self-cleavage does the source give for A6U C10A U32C here?
**A.** 0.01

**Q.** Which self-cleavage does the source give for C18A A26U U32C here?
**A.** 0.28

**Q.** For G1U A14C C15A A16G A24C, which self-cleavage is on record?
**A.** 0.01

**Q.** With A14U G19C C23U A25C G35C as the variant, how does the self-cleavage read?
**A.** 0.02

**Q.** With C3U C10G A12C G27U as the variant, how does the self-cleavage read?
**A.** 0.04

**Q.** For A12U A14U G36A, which self-cleavage is on record?
**A.** 0.03

**Q.** For A4C C23U A25U U28A U43A, which self-cleavage is on record?
**A.** 0.15

**Q.** Which self-cleavage does the source give for U20G G21U G27U here?
**A.** 1

**Q.** With G1U G5U C10U G30C as the variant, how does the self-cleavage read?
**A.** 0.03

**Q.** Which self-cleavage does the source give for G2U G36U U38C A41G here?
**A.** 0.04

**Q.** Which self-cleavage does the source give for A4G G17U A26G G44C here?
**A.** 0.06

**Q.** Which self-cleavage does the source give for C10A A25C G30U here?
**A.** 1.04

**Q.** With G7A A11G A14C U32A U34A G36A C37U as the variant, how does the self-cleavage read?
**A.** 0

**Q.** For A4G C10G C18G U38G C46G, which self-cleavage is on record?
**A.** 0

**Q.** With C10U A11U A12U C18A A26U C46A as the variant, how does the self-cleavage read?
**A.** 0.02

**Q.** Which self-cleavage does the source give for G1U C3G A24U U34A U38G G40U here?
**A.** 0.05

**Q.** Which self-cleavage does the source give for C3U G5U G7A G27C here?
**A.** 0.17

**Q.** For A11C G21U C31U, which self-cleavage is on record?
**A.** 0.01

**Q.** Which self-cleavage does the source give for C10G C13U U32A here?
**A.** 0.02

**Q.** Which self-cleavage does the source give for G7A C13A G17U here?
**A.** 0.91

**Q.** Which self-cleavage does the source give for A4U G7U A16U A24G G29U here?
**A.** 0.02

**Q.** With G1C G7U C18G A26G G40U C42A C45U as the variant, how does the self-cleavage read?
**A.** 0.02

**Q.** For U20G C31A G35U, which self-cleavage is on record?
**A.** 0.03

**Q.** For C3A C10A A39U U43A, which self-cleavage is on record?
**A.** 0.04

**Q.** With A26U G27U G36U as the variant, how does the self-cleavage read?
**A.** 0.1

**Q.** For A25U U32G A41U, which self-cleavage is on record?
**A.** 0.1

**Q.** With C3A A6G C18U C31A U34G as the variant, how does the self-cleavage read?
**A.** 0.02

**Q.** For C10A G21C G27C, which self-cleavage is on record?
**A.** 0.02

**Q.** With G17C C23U A24G as the variant, how does the self-cleavage read?
**A.** 2.21

**Q.** Which self-cleavage does the source give for C13A U20A U32G here?
**A.** 0.09

**Q.** With A4U C23G A26C as the variant, how does the self-cleavage read?
**A.** 0.07

**Q.** Which self-cleavage does the source give for G1A C10A U28C here?
**A.** 0.04

**Q.** With G2U C3U A11G C13A A16U G22A as the variant, how does the self-cleavage read?
**A.** 0.01

**Q.** For A14U U32C G40U, which self-cleavage is on record?
**A.** 0.07

**Q.** For C15A C37U C46A, which self-cleavage is on record?
**A.** 0.05

**Q.** For A16U U20A C46U, which self-cleavage is on record?
**A.** 0.07

**Q.** For C18U G33C G36C G40C, which self-cleavage is on record?
**A.** 0.01

**Q.** For G30U C31U U43A, which self-cleavage is on record?
**A.** 0.27

**Q.** With G5U U20C C31U U32G as the variant, how does the self-cleavage read?
**A.** 0.02

**Q.** For C3A A41U C45A, which self-cleavage is on record?
**A.** 0.19

**Q.** With G1C G5U U20C as the variant, how does the self-cleavage read?
**A.** 0.02

**Q.** Which self-cleavage does the source give for U9G A16C G22U A39C here?
**A.** 0.02

**Q.** Which self-cleavage does the source give for G1U A11U C13A here?
**A.** 0

**Q.** For G1A C3U C23U G30U A41U C45A, which self-cleavage is on record?
**A.** 0.99

**Q.** With C8A C10G U20G G29U as the variant, how does the self-cleavage read?
**A.** 0.05

**Q.** For G17A G19U G33U G40U, which self-cleavage is on record?
**A.** 0

**Q.** For G7U C8U G27A C37G, which self-cleavage is on record?
**A.** 0.05

**Q.** For G1A G5U G27C, which self-cleavage is on record?
**A.** 0.08

**Q.** With C8U A12G C37U A41G C46U as the variant, how does the self-cleavage read?
**A.** 0.01

**Q.** Which self-cleavage does the source give for A11G C23G C37A here?
**A.** 0.01

**Q.** Which self-cleavage does the source give for A11U C13U C15A G22A C46A here?
**A.** 0.02

**Q.** Which self-cleavage does the source give for C3G C8A A14U G17A here?
**A.** 0.15

**Q.** Which self-cleavage does the source give for A6G G17U C23U here?
**A.** 0.03

**Q.** For A14U U34G G40C, which self-cleavage is on record?
**A.** 0.07

**Q.** With A4U G22U U28C as the variant, how does the self-cleavage read?
**A.** 0.2

**Q.** With A14U C23A G29A C31G U32G A41G G44A as the variant, how does the self-cleavage read?
**A.** 0.01

**Q.** For G17C G19A A24C G36U, which self-cleavage is on record?
**A.** 0.07

**Q.** For G7U U9G A16G A24U G33A G44U, which self-cleavage is on record?
**A.** 0.03

**Q.** For G7C C15A G17A, which self-cleavage is on record?
**A.** 0.02

**Q.** For A16U G40A U43G, which self-cleavage is on record?
**A.** 0.04

**Q.** For A6U U20G G44A, which self-cleavage is on record?
**A.** 0.19

**Q.** For C13A G22A G27U A39C U43C, which self-cleavage is on record?
**A.** 0.03

**Q.** Which self-cleavage does the source give for G7C C13G C15U G33U U34G here?
**A.** 0.15

**Q.** With C8U G30A G40U C42U as the variant, how does the self-cleavage read?
**A.** 1.44

**Q.** Which self-cleavage does the source give for G2C A6C A11G G21A here?
**A.** 0.02

**Q.** For G1C C15A G21U A26U U43G, which self-cleavage is on record?
**A.** 0

**Q.** For C10A U38A A39U, which self-cleavage is on record?
**A.** 0.16
